The supplement of paper PMC4604168 (melanoma cell lines)
Some of the results follow. Most values come without repeats; read them as rough.

Tests used:
Assay in all cases: cell count relative to DMSO control; melanoma cells; higher = more viable cells
Conditions in all cases: library dose: standard library concentration; 72 h
G361 = system: G361
IPC-298 = system: IPC-298
IST-MEL1 = system: IST-MEL1
LB2518-MEL = system: LB2518-MEL
LOXIMVI = system: LOXIMVI
MEL-HO = system: MEL-HO
MZ2-MEL = system: MZ2-MEL
MeWo = system: MeWo
RPMI7951 = system: RPMI7951
RVH-421 = system: RVH-421
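Further: cells treated in 1,536-well plates, then fixed and DAPI-stained, with nuclei counted from automated high-throughput microscope images.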

SMILES | cell count (G361) | cell count (IPC-298) | cell count (IST-MEL1) | cell count (LB2518-MEL) | cell count (LOXIMVI) | cell count (MEL-HO) | cell count (MZ2-MEL) | cell count (MeWo) | cell count (RPMI7951) | cell count (RVH-421)
NC1(c2ccc(-c3nc4ccn5c(=O)[nH]nc5c4cc3-c3ccccc3)cc2)CCC1 + O=C(CCCCCCC(=O)Nc1ccccc1)NO [vorinostat] (first compound 2 µM, partner dose 0.4 µM) | 68.3% | 86.1% | 74.3% | 74.5% | 68.2% | 63.3% | 101% | 80.7% | 72.4% | 74.9%
CN(c1ncccc1CNc1nc(Nc2ccc3c(c2)CC(=O)N3)ncc1C(F)(F)F)S(C)(=O)=O + COCC[n+]1c2c(n(Cc3cnccn3)c1C)C(=O)c1ccccc1C2=O [YM155] (first compound 0.4 µM, partner dose 0.002 µM) | 57% | 44.7% | 44.3% |  | 46% | 86.7% |  | 33.3% | 27.4% | 87.6%
CCCS(=O)(=O)Nc1ccc(F)c(C(=O)c2c[nH]c3ncc(Cl)cc23)c1F + NC(=O)Nc1cc(-c2cccc(F)c2)sc1C(=O)N[C@H]1CCCNC1 [AZD7762] (first compound 0.4 µM, partner dose 0.1 µM) | 71% | 84.5% | 73.1% |  | 85.5% | 70.9% |  | 66.8% | 18% | 83.8%
C=C(c1ccc(C(=O)O)cc1)c1cc2c(cc1C)C(C)(C)CCC2(C)C [Bexarotene] + COc1cc2c(Oc3ccc4[nH]c(C)cc4c3F)ncnc2cc1OCCCN1CCCC1 [cediranib] (first compound 10 µM, partner dose 2 µM) | 79.9% | 87.1% | 90.8% | 85.9% | 65.1% | 102% | 41.9% | 90.1% | 55.1% | 77.7%
CS(=O)(=O)c1ccc(C(=O)Nc2ccc(Cl)c(-c3ccccn3)c2)c(Cl)c1 [vismodegib] + NCC(=O)Nc1ccc(-n2nc(C(F)(F)F)cc2-c2ccc3c(ccc4ccccc43)c2)cc1 [OSU03012] (first compound 5 µM, partner dose 5 µM) | 63.6% | 58.4% | 82.3% | 94.6% | 90.6% | 76.5% | 93.7% | 100% | 90.7% | 86%
NC1(c2ccc(-c3nc4ccn5c(=O)[nH]nc5c4cc3-c3ccccc3)cc2)CCC1 + Cc1cc(N2CCOCC2)cc2[nH]c(-c3c(NC[C@@H](O)c4cccc(Cl)c4)cc[nH]c3=O)nc12 [BMS536924] (first compound 2 µM, partner dose 1 µM) | 65% | 97.5% | 89.3% |  | 64.4% | 66.5% |  | 79.5% | 61.7% | 69.3%
CCCS(=O)(=O)Nc1ccc(F)c(C(=O)c2c[nH]c3ncc(Cl)cc23)c1F + OCc1c[nH]c2ccccc12 [Indole-3-carbinol] (first compound 0.4 µM, partner dose 4 µM) | 68.3% | 66.6% | 94.1% |  | 75.8% | 79.9% |  | 94.9% | 148% | 98.5%
CN(c1ncccc1CNc1nc(Nc2ccc3c(c2)CC(=O)N3)ncc1C(F)(F)F)S(C)(=O)=O + CC(=O)c1c(C)c2cnc(Nc3ccc(N4CCNCC4)cn3)nc2n(C2CCCC2)c1=O [palbociclib] (first compound 0.4 µM, partner dose 0.2 µM) | 58.7% | 66.3% | 70.3% |  | 61.5% | 71.8% |  | 51.5% | 43.2% | 64.3%
NC1(c2ccc(-c3nc4ccn5c(=O)[nH]nc5c4cc3-c3ccccc3)cc2)CCC1 + Nc1nc(F)nc2c1ncn2[C@@H]1O[C@H](CO)[C@@H](O)[C@@H]1O [fludarabine] (first compound 2 µM, partner dose 1 µM) | 75.4% | 62.3% | 68.3% |  | 67% | 61.2% |  | 76.7% | 60.3% | 95.7%
CCCS(=O)(=O)Nc1ccc(F)c(C(=O)c2c[nH]c3ncc(Cl)cc23)c1F + Cn1c(Nc2ccc(C(F)(F)F)cc2)nc2cc(Oc3ccnc(-c4ncc(C(F)(F)F)[nH]4)c3)ccc21 [CHIR265] (first compound 0.4 µM, partner dose 0.4 µM) | 20.1% | 52.1% | 90.3% | 40.4% | 74.3% | 58.5% | 68.9% | 101% | 50.5% | 36.5%
NC1(c2ccc(-c3nc4ccn5c(=O)[nH]nc5c4cc3-c3ccccc3)cc2)CCC1 + CN1CCN(c2ccc3nc(-c4c(N)c5c(F)cccc5[nH]c4=O)[nH]c3c2)CC1 [Dovitinib] (first compound 2 µM, partner dose 0.5 µM) | 48.7% | 56.1% | 54.8% | 43.2% | 64.9% | 50.9% | 45.1% | 41.5% | 58.6% | 68.9%
NC1(c2ccc(-c3nc4ccn5c(=O)[nH]nc5c4cc3-c3ccccc3)cc2)CCC1 + CO[C@@H]1[C@H](N(C)C(=O)c2ccccc2)C[C@H]2O[C@]1(C)n1c3ccccc3c3c4c(c5c6ccccc6n2c5c31)C(=O)NC4 [Midostaurin] (first compound 2 µM, partner dose 0.4 µM) | 53.2% | 82.1% | 69.2% |  | 42.4% | 53.7% |  | 65.6% | 42.9% | 57.2%
NC1(c2ccc(-c3nc4ccn5c(=O)[nH]nc5c4cc3-c3ccccc3)cc2)CCC1 + COc1ccc(Cl)c(Nc2nc3ccccc3nc2NS(=O)(=O)c2cccc(NC(=O)C(C)(C)N)c2)c1 [XL147] (first compound 2 µM, partner dose 4 µM) | 75.1% | 68% | 49.8% | 71.2% | 75.5% | 55.1% | 80.7% | 69.3% | 84.2% | 69.1%
CCCS(=O)(=O)Nc1ccc(F)c(C(=O)c2c[nH]c3ncc(Cl)cc23)c1F + Cc1cc(N2CCOCC2)cc2[nH]c(-c3c(NC[C@@H](O)c4cccc(Cl)c4)cc[nH]c3=O)nc12 [BMS536924] (first compound 0.4 µM, partner dose 1 µM) | 53.6% | 84.1% | 90% |  | 70.5% | 87.4% |  | 71.8% | 75.6% | 69.6%
CCCS(=O)(=O)Nc1ccc(F)c(C(=O)c2c[nH]c3ncc(Cl)cc23)c1F + c1cc(-c2cnn3cc(-c4ccc(OCCN5CCCCC5)cc4)cnc23)ccn1 [Dorsomorphin] (first compound 0.4 µM, partner dose 2 µM) | 36.2% | 58.5% | 76.6% | 51.1% | 80.8% | 62.6% | 47.8% | 62.4% | 63.2% | 78.3%
CN(c1ncccc1CNc1nc(Nc2ccc3c(c2)CC(=O)N3)ncc1C(F)(F)F)S(C)(=O)=O + CCc1ccc(CCOc2ccc(CC3SC(=O)NC3=O)cc2)nc1 [pioglitazone] (first compound 0.4 µM, partner dose 10 µM) | 66.1% | 89.2% | 82.4% | 89.4% | 103% | 77.9% | 78.7% | 102% | 73.6% | 71.6%
CS(=O)(=O)c1ccc(C(=O)Nc2ccc(Cl)c(-c3ccccn3)c2)c(Cl)c1 [vismodegib] + CN1CCN(c2ccc3nc(-c4c(N)c5c(F)cccc5[nH]c4=O)[nH]c3c2)CC1 [Dovitinib] (first compound 5 µM, partner dose 0.5 µM) | 83.9% | 73.8% | 81.8% | 58.9% | 120% | 78.4% | 47.4% | 48.1% | 74.9% | 105%
CS(=O)(=O)c1ccc(C(=O)Nc2ccc(Cl)c(-c3ccccn3)c2)c(Cl)c1 [vismodegib] + CCCS(=O)(=O)Nc1ccc(F)c(C(=O)c2c[nH]c3ncc(Cl)cc23)c1F [PLX4720] (first compound 5 µM, partner dose 0.4 µM) | 66.4% | 63.6% | 90.3% |  | 73.1% | 88.8% |  | 113% | 108% | 83.9%
NC1(c2ccc(-c3nc4ccn5c(=O)[nH]nc5c4cc3-c3ccccc3)cc2)CCC1 + Nc1ccn([C@@H]2O[C@H](CO)[C@@H](O)C2(F)F)c(=O)n1 [gemcitabine] (first compound 2 µM, partner dose 0.002 µM) | 36.5% | 38.1% | 42.2% | 51.8% | 54.3% | 43.5% | 63.1% | 37% | 62.8% | 41.2%
CN(c1ncccc1CNc1nc(Nc2ccc3c(c2)CC(=O)N3)ncc1C(F)(F)F)S(C)(=O)=O + O=c1cc(-c2cccc3c2Sc2ccccc2S3)oc(N2CCOCC2)c1 [KU55933] (first compound 0.4 µM, partner dose 5 µM) | 75.2% | 91.7% | 112% | 93.4% | 199% | 81.8% | 94.7% | 98.7% | 69.3% | 82.6%
C=C(c1ccc(C(=O)O)cc1)c1cc2c(cc1C)C(C)(C)CCC2(C)C [Bexarotene] + C[C@@H]1CCN(C(=O)CC#N)C[C@@H]1N(C)c1ncnc2[nH]ccc12 [CP690550] (first compound 10 µM, partner dose 5 µM) | 85.2% | 89% | 81.6% |  | 83.7% | 86% |  | 81.1% | 59.8% | 96.3%
